Data reported in the supplement of paper PMC10037445.
Values joined by “and” are separate entries in the source; they are usually repeats but may differ in a detail not shown here. Equal entries are not always repeated. The full ranking holds about 2,900 compounds; the median of “NF-kB SEAP reporter activity, fold change vs agonist alone” is about 0.99, and the highest 2% start at about 2.6. The list shows a part of the results.

Assays:
[1] = system: RAW-Dual; experiment: NF-kB SEAP reporter activity, fold change vs agonist alone; higher = enhanced NF-kB activity; settings: library stock concentration (final ~1000-fold dilution): 10 mM, cytotoxicity flag (confluency mask): not cytotoxic
Procedure, shortened: (§1)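 Supernatant from RAW-Dual macrophages was read after 20 hours for IRF by QuantiLuc luminescence and for NF-κB by QuantiBlue absorbance at 620 nm. The cells (50,000 cells/well in DMEM, 384-well plates, 37 °C, 5% CO2) had received 50 nL of library stock by pin tool and, 1 h later, a PRR agonist. Reporter activity is expressed relative to agonist-alone wells as fold change, and wells were flagged cytotoxic if IncuCyte confluency was under 70% of agonist controls in both mask sets.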

[2] = system: RAW-Dual; experiment: NF-kB SEAP reporter activity, fold change vs agonist alone; cytotoxicity flag (confluency mask): not cytotoxic; higher = enhanced NF-kB activity
Procedure, shortened: as §1

[3] = agonist: ODN 1826 (TLR9) 0.5 ug/mL
[4] = agonist: Pam2CSK4 (TLR2/6) 0.1 ug/mL
[5] = agonist: Pam3CSK4 (TLR2/1) 0.1 ug/mL

Row | Compound | NF-kB SEAP reporter activity ([1]; agonist: Imiquimod (TLR7) […]) | NF-kB SEAP reporter activity ([1]; agonist: MPLA (TLR4) […]) | NF-kB SEAP reporter activity ([2]; agonist: LPS (TLR4) 0.1 ug/mL) | NF-kB SEAP reporter activity [2, 3] | NF-kB SEAP reporter activity [2, 4] | NF-kB SEAP reporter activity [2, 5]
1 | CC(CN1CC(=O)NC(=O)C1)N1CC(=O)NC(=O)C1.Cl (configuration not stated) | 0.988 | 0.998 | – | – | – | –
2 | CC(CN1CC(=O)NC(=O)C1)N1CC(=O)NC(=O)C1.Cl (configuration not stated) (library stock concentration (final ~1000-fold dilution): 10 mM) | – | – | 1.08 | 1.13 | 1 | 1.01
3 | NC1(C(=O)NC(CCO)c2ccc(Cl)cc2)CCN(c2ncnc3[nH]ccc23)CC1 (configuration not stated) | 0.829 | 0.793 | – | – | – | –
4 | NC1(C(=O)NC(CCO)c2ccc(Cl)cc2)CCN(c2ncnc3[nH]ccc23)CC1 (configuration not stated) (library stock concentration (final ~1000-fold dilution): 10 mM) | – | – | 0.9 | 1.06 | 0.974 | 0.723
5 | COC1(c2sc3c(N4CCOCC4)nc(-c4cnc(N)nc4)nc3c2C)COC1 (library stock concentration (final ~1000-fold dilution): 10 mM) | – | – | 1.46 | 0.707 | 0.459 | 0.608
6 | COC1(c2sc3c(N4CCOCC4)nc(-c4cnc(N)nc4)nc3c2C)COC1 | 0.913 | 1.05 | – | – | – | –
7 | CCOC(=O)C1=C(C)NC(C)=C(C(=O)OC)C1c1cccc([N+](=O)[O-])c1 (configuration not stated) | 0.846 | 0.826 | – | – | – | –
8 | CCOC(=O)C1=C(C)NC(C)=C(C(=O)OC)C1c1cccc([N+](=O)[O-])c1 (configuration not stated) (library stock concentration (final ~1000-fold dilution): 10 mM) | – | – | 0.655 | 0.533 | 0.498 | 0.496
9 | CC(C)(C)c1ccc(Cn2nc(-c3ccc(Cl)cc3)cc2C(=O)NO)cc1 (library stock concentration (final ~1000-fold dilution): 10 mM) | – | – | 1.32 | 1.24 | 0.824 | 0.964
10 | CC(C)(C)c1ccc(Cn2nc(-c3ccc(Cl)cc3)cc2C(=O)NO)cc1 | 1.47 | 1.5 | – | – | – | –
11 | CCC(C)C(=O)OC1CC(O)C=C2C=CC(C)C(CCC(O)CC(O)CC(=O)O)C21 (configuration not stated) (library stock concentration (final ~1000-fold dilution): 10 mM) | – | – | 1.01 and 1.04 | 1 and 1.02 | 1.08 and 1.05 | 0.841 and 1.15
12 | Cc1c[nH]c(-c2cnc(NCCNc3ccc(C#N)cn3)nc2-c2ccc(Cl)cc2Cl)n1 (library stock concentration (final ~1000-fold dilution): 10 mM) | – | – | 3.08 | 2.65 | – | 2.9
